Screen size: about 340,000 compounds; about 12,000 (3.5%) were called active. This list was built around the results that the source calls inconclusive (neither active nor inactive); the mix of calls is not that of the screen. Calls come from the whole dose curve; as a rule, active = well fitted inhibition curve with a large enough effect; inconclusive = small, poorly fitted or top-dose-only effect, or another doubt; inactive = no such curve, though single readings can be large or run the other way. No potency is given beside an inconclusive call; the fits are too rough.
experiment: qHTS Assay for Inhibitors of Hepatitis C Virus (HCV); details: Huh7.5.1 HCVcc-Cre (HCVcc is cell-culture hepatitis C virus) infection, luciferase reporter, 44 h; activity change, negative = inhibition: at 41.8 µM (top of the series) unless noted
Procedure, shortened: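 Cells seeded at 1,000/well and cultured 4 h, then compounds added followed by HCVcc-Cre virus (~0.5 moi). After 44 h further culture, luciferase substrate was added, plates held 15 min at room temperature, and luminescence read for 15 sec.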
% is set by controls: 0 for no effect and ±100 for the full control effect; potency is the fitted concentration of half-maximal effect; tags give direction and shape of the fitted curve.

Question: For `CC(Sc1ccccc1)C(=O)NN=C1CCCCCC1` (centres undefined), which “activity change, negative = inhibition” value is on record?
Answer: inactive: 20.3%

Question: With `CC(C)Cn1c(SCC(=O)N2CCc3ccccc3C2)nc2cc(Cl)ccc2c1=O` as the compound, how does the “activity change, negative = inhibition” value read?
Answer: inactive: -8.85%

Question: With `CC(C)CCNC(=O)NC(=O)COC(=O)C1=COCCO1` as the compound, how does the Potency read?
Answer: inconclusive [inhibitor, single point]

Question: With `O=C(N/N=C/c1cccnc1)C1CC1(c1ccccc1)c1ccccc1` (centres undefined) as the compound, how does the Potency read?
Answer: inconclusive [inhibitor, single point]

Question: Which Potency does the source give for `CC(C)CC(=O)Nc1cccc(-c2csc(-c3ccccc3)n2)c1` here?
Answer: inconclusive [inhibitor, partial curve, poor fit]

Question: With `Cc1ccc(NC(=O)C2CC2c2ccccc2)c([N+](=O)[O-])c1` (centres undefined) as the compound, how does the Potency read?
Answer: inconclusive [inhibitor, single point]

Question: Which Potency does the source give for `O=C(NCc1ccc(F)cc1)c1ccc(CS(=O)(=O)c2ccc(Br)cc2)o1` here?
Answer: inconclusive [inhibitor, partial curve]

Question: For `COC(=O)C1=C(N)OC2=C(C(=O)CCC2)C1c1ccccc1OC` (centres undefined), which “activity change, negative = inhibition” value is on record?
Answer: inactive: -2.95%

Question: With `COc1ccc(OC)c(NC(=O)c2nc(-c3ccccc3)oc2C)c1` as the compound, how does the Potency read?
Answer: inconclusive [inhibitor, partial curve]

Question: For `O=C(c1cc(COc2ccc3ncccc3c2)on1)N1CCCCCC1`, which Potency is on record?
Answer: inconclusive [inhibitor, full curve, poor fit]

Question: With `COc1cc(OC)nc(Oc2ccccc2/C=N/O)n1` as the compound, how does the Potency read?
Answer: inconclusive [inhibitor, single point]

Question: For `O=S(=O)(NCc1ccccc1)c1ccc(S(=O)(=O)N(Cc2ccccn2)C2CCCC2)cc1`, which Potency is on record?
Answer: inconclusive [inhibitor, partial curve]

Question: For `Cc1cc2nc(/C=C/c3cccnc3)[nH]c2cc1C`, which “activity change, negative = inhibition” value is on record?
Answer: inactive: -7.2%

Question: For `CCOc1ccc(C(F)(F)F)cc1NC(=O)COc1ccc(C(F)(F)F)cc1[N+](=O)[O-]`, which Potency is on record?
Answer: inconclusive [inhibitor, single point]

Question: With `CC(=O)Nc1ccc(N=C(C2=C(O)c3ccccc3C2=O)c2ccccc2)cc1` as the compound, how does the Potency read?
Answer: inconclusive [inhibitor, partial curve]

Question: Which Potency does the source give for `C=C(C)c1cccc(C(C)(C)NC(=O)Nc2nncs2)c1` here?
Answer: inconclusive [inhibitor, single point]

Question: For `NC1=NC[C@H](Cc2ccccc2)N1CC1CCCCC1`, which “activity change, negative = inhibition” value is on record?
Answer: inactive: 8.34%

Question: Which Potency does the source give for `COc1ccccc1CCC(=O)N(Cc1ccccc1)c1c(N)n(Cc2ccccc2)c(=O)[nH]c1=O` here?
Answer: active: 1.12 µM

Question: For `CC(=O)c1c(N2CCN(Cc3ccccc3)CC2)nc(=S)n(Cc2ccccc2)c1C`, which Potency is on record?
Answer: inconclusive [inhibitor, single point]

Reference: PubChem BioAssay AID651820 (National Center for Advancing Translational Sciences (NCATS), 2012)
